Experimental findings from the supplement of paper PMC11417369 are described below.

± gives the standard deviation of the averaged measurements. This is one part of the list.

The subject of the assay is PfAP2-LT AP2 domain (GST-tagged). The assay can be described thus: gcPBM binding intensity (ln(normalized median fluorescence intensity)); higher = stronger DNA binding. The gist of the method:
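Probes on an Agilent 4 × 180k array were primer-extended, double-stranded and 36 bp long, taken from intergenic genomic regions, with negative controls added. GST-tagged P. falciparum DNA-binding domains from E. coli, about 25 μg on average, were applied to the array for 1 h in 1× PBS containing 1% milk, 0.2 mg/ml BSA, 0.5% salmon testes DNA and 0.03% Triton X-100. Binding intensity, obtained after Alexa488 anti-GST antibody detection and a 488 nm scan, is the highest Masliner-normalised natural-log median intensity across replicate spots of either probe orientation.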
Take “TCTTATTTTTTTATATATACAAAGTTTTATATATAT [GTGCAC_negctrl_site314]”: the “gcPBM binding intensity (ln)” value turned out to be 8.69 ± 0.42.

Regarding “ATATAATATATGTAAGTGCGCTTATAAATAAAACGA [GTGCAC_site9841]”, the “gcPBM binding intensity (ln)” value amounted to 9.18 ± 0.53. Then “ATATATTGATATATGTGTACATAGCTTATTTCATTT [XGTACX_site1800]”, with 8.93 ± 0.47. Then “TATATAGAAAACAAGGCATGCAAATAACAAATTGTG [TGCATGCA_site473]”, with 9.49 ± 0.35. Then “AACAAAAATGAAAAAACACACATAACATATATAAAT [CACACA_site740]”, with 9.27 ± 0.41. Take “TTTTTAATTATTTATATAACGATAATCCTTACATAA [TGCATGCA_negctrl_site180]”: the “gcPBM binding intensity (ln)” value is 8.23 ± 0.57. Then “AAAAAAAAAAAAAAAGTGCACTGAAAATATATTGAA [GTGCAC_site9395]”, with 8.76 ± 0.53; and “ATAATATAAATAAAAACACACACAATCGTACATATA [CACACA_site9223]”, with 9.45 ± 0.22; and “CTAATCGTGCACAACTGTACATTTGTCAAGGGCAAT [XGTACX_site8662]”, with 9.04 ± 0.36.

Take “TTTTTAATATATATCACACATATATATTTTTAATTA [CACACA_site6099]”: the “gcPBM binding intensity (ln)” value came to 8.49 ± 0.57. Take “ATAAAAATCTTTAGTAGTACATTATAAAAAACTATT [XGTACX_site5531]”: the “gcPBM binding intensity (ln)” value is 8.52 ± 0.37. Take “ATGTGAACATTCAATGCACACGATGTAATTATACAT [CACACA_site15]”: the “gcPBM binding intensity (ln)” value came out at 9.3 ± 0.28.

Consider “ATATATATATATGCATGTACATATTTATCTTTATAT [XGTACX_site232]”, for which the “gcPBM binding intensity (ln)” value is 9.57 ± 0.44. As for “AAAACATCAAAAATGTGTACATATATATATATATAT [XGTACX_site8884]”, the “gcPBM binding intensity (ln)” value was found to be 9.66 ± 0.28. The same measure for “AACATATATTAGCTTACATGCAAAAAGTAAAAAAAT [TGCATGCA_site10]”: 8.92 ± 0.42. The same measure for “AATTTAAAACGGAGATGTACATATATAAATATATAC [XGTACX_site3723]”: 8.93 ± 0.47.

Regarding “CGGCTATTTCTATATACATGCATTTAAAAAAAAAAT [TGCATGCA_site354]”, the “gcPBM binding intensity (ln)” value was 8.32 ± 0.4. As for “TATATATCTGTGAAAATACTTAAATTGTTATAAAAA [CACACA_negctrl_site1109]”, the “gcPBM binding intensity (ln)” value came to 8.39 ± 0.45. Then “AAAAAAAAAATGAGCACACATAAATAAAAACAAACA [CACACA_site1573]”, with 9.22 ± 0.48; and “ACCTATTTCAAACACACACACACACTAACAAACATA [CACACA_site8233]”, with 10 ± 0.13; and “AGTTATTTTAAATGTAGTACACAAAAGAAATATTAA [XGTACX_site4092]”, with 8.61 ± 0.49. As for “CATAAATTAAAACACACACACACAAAAAAAAAAAAA [CACACA_site2262]”, the “gcPBM binding intensity (ln)” value is 9.84 ± 0.33.

On to “TATTTTCTCGTTTGCATGCACCTTATTTTATGTGGT [GTGCAC_site9470]”, for which the “gcPBM binding intensity (ln)” value amounted to 9.39 ± 0.49. For the sequence “TAAAATTTGCGATGCACACAGAATAGCTAATATGAC [CACACA_site2995]”, the “gcPBM binding intensity (ln)” value was 9.16 ± 0.3. The same measure for “ATATTATATATATACACACACACATGCATGCACATA [CACACA_site7917]”: 9.89 ± 0.22; for AAATTCTGCATCGAGGTGCGCCATAAAAATTGTGGT: 8.81 ± 0.38. The same measure for “TACTAAAACCCATACACACACATATTTATAGTACCA [CACACA_site7484]”: 9.57 ± 0.33; for “TATACAATATATATAACACACATATTTATATAAAAT [CACACA_site5061]”: 8.97 ± 0.35; for “ACAAATCTATAAGAGTGTACGAACAGTAAAGGAATT [XGTACX_site2070]”: 9.2 ± 0.56. Then “AACATAAAAATTGAAGCACACACACTAATGAAATAC [CACACA_site8287]”, with 9.62 ± 0.22; and “CAGTTGGAAGGAAAGTGTACATAAAAAAAAATATAA [XGTACX_site8784]”, with 8.83 ± 0.59. Turning to “AAAATACCATTTGAAACACACAAAAAAAAAAAAAAT [CACACA_site2981]”, the “gcPBM binding intensity (ln)” value is 9.04 ± 0.51. The same measure for “TTTAAAAATATATATTGTACATATATATATCTATGA [XGTACX_site3556]”: 8.43 ± 0.52; for “ATAAAAATTAAAAGGAGTACTTAAATATTAAGATGG [XGTACX_site4815]”: 8.53 ± 0.37; for “TACTATTTAAAATTTGAACACACATTATTTATTTTA [CACACA_site9020]”: 8.58 ± 0.57.

“TTTATTTAAAAAATAAAAAAAAAAAAAAAAAAAAAA [CACACA_negctrl_site1670]”: the “gcPBM binding intensity (ln)” value was 8.05 ± 0.21. Turning to “TTATGTGTATAGGTTTGTACATAAAATGATGTATAG [XGTACX_site1401]”, the “gcPBM binding intensity (ln)” value came to 8.77 ± 0.44. For “TCATGGAATATTTAAAGTACAAAAAGTGTTCTTTAC [XGTACX_site715]”, the “gcPBM binding intensity (ln)” value is 8.36 ± 0.47. Then “TAGTCATATATATATGTACACACATATATATATTTA [CACACA_site8413]”, with 8.88 ± 0.38; and “TATATATATATGTGTACACATGTCGCATTTTTTTAT [CACACA_site4648]”, with 9.57 ± 0.33. Then “GATATTATAAAATAAAAATAAATCATTTCTATTCAT [CACACA_negctrl_site334]”, with 8.32 ± 0.49; and “ACATATATGGAGCTTATACACACTTTTATATTTTAA [CACACA_site3854]”, with 8.81 ± 0.47. The same measure for “TTTTAAATATGCCATACACACTACTCTATAATAAAT [CACACA_site6987]”: 8.69 ± 0.4. Take “TTATCATATAATTATTGTACTAAAAAAAAAGCGAGT [XGTACX_site3086]”: the “gcPBM binding intensity (ln)” value was 8.68 ± 0.4.

As to “TTATAATAAATATATAAAAAAAAAAAAAAAAAAAAA [CACACA_negctrl_site1639]”, the “gcPBM binding intensity (ln)” value stood at 8.19 ± 0.36. The same measure for “ATATATTATGGGTGTGCACACAATATTTATATGTTC [CACACA_site2270]”: 9.51 ± 0.47. Then “TTTTCTTATAAATGAAGTACAAAAAAAAAATATATA [XGTACX_site1352]”, with 8.25 ± 0.38; and “TGATAGCACCTTATATGTACATATAATATATTATTA [XGTACX_site837]”, with 8.91 ± 0.38. Then “AAGGTATAATATATTTGTACATATACATTTTTGAAT [XGTACX_site6493]”, with 8.77 ± 0.38.

Take “TGAAAAATGTAATGCTCACACATATATATATATATA [CACACA_site5213]”: the “gcPBM binding intensity (ln)” value came out at 9.78 ± 0.35. The same measure for “GATTTTAATGGGTGTACACATTTATTTATATAAAGT [CACACA_site5317]”: 8.74 ± 0.45; for “TATCCCCTTGTCCATATTAATTGTGACATCATATAT [XGTACX_negctrl_site9]”: 8.93 ± 0.45; for “TATTTTTTATTTTAAATCCTCTGATATTTAATTTGT [TGCATGCA_negctrl_site84]”: 8.48 ± 0.49. The same measure for “TAATATGTTTATGGTAACATACAAAAATGTATATAT [GTGCAC_negctrl_site204]”: 8.55 ± 0.37; for “ATGTGTATATATATGTGTACATAATTTGTGTTATTC [XGTACX_site2509]”: 9.08 ± 0.41; for “GTGTCTTTTATTAAATGTACATATTCATAGATAAAA [XGTACX_site8578]”: 8.49 ± 0.3. Then “TTATTTTTTTGGAATTCACACACAAAAAAAAAAATA [CACACA_site8650]”, with 8.72 ± 0.38; and “ACGTAAACATGTAGAAGGCATTACACAATGGTATAC [TGCATGCA_negctrl_site512]”, with 9.3 ± 0.35; and “ACCTTAAAAATAACTGCACACAAAAATAAATACCTT [CACACA_site8902]”, with 9.16 ± 0.38. For the sequence “TAGAATGAAAAAAAAGCATGCGGGCAAAAATTTTTA [TGCATGCA_site926]”, the “gcPBM binding intensity (ln)” value came to 8.87 ± 0.47.

In the case of “AATTGAGAAGTGTGTTGTACATAATGGCACATACCT [XGTACX_site1370]”, the “gcPBM binding intensity (ln)” value worked out at 9.03 ± 0.39. Then “TTATGGTGCATGAAATCACACATTGATATATATGCT [CACACA_site5352]”, with 8.85 ± 0.46; and “ACATTTAAATAATATGTGCACAGCTATATTTTCTTT [GTGCAC_site9562]”, with 8.86 ± 0.48; and “ATATATATATATATATGTACATATATATATTATATT [XGTACX_site6303]”, with 9.19 ± 0.18. Then “ATATTTAGGAAAAATAGTACACATTTAAATAATAAT [XGTACX_site7989]”, with 8.68 ± 0.47; and “TAGGTGCCTTTTTTCACACACATGTCAACTAAATAT [CACACA_site2656]”, with 9.22 ± 0.44; and “AAATATATATATATATATATAAATATATACATATAT [TGCATGCA_negctrl_site517]”, with 8.89 ± 0.23. On to “CTTTAAATTAATAAAAGTACATTATTTATATATTTT [XGTACX_site4808]”, for which the “gcPBM binding intensity (ln)” value was found to be 8.25 ± 0.59.

Regarding “ATAACAAAAAAAAAGGTGCTACAAAATGAATAAAAA [GTGCAC_site9659]”, the “gcPBM binding intensity (ln)” value was determined as 8.79 ± 0.56. The same measure for “TACATATATATATATGTACACACATTAATAAAAAAA [CACACA_site9058]”: 8.97 ± 0.41; for “ATATTTTATTTTAATACACACAAGTTATATAACCAC [CACACA_site6508]”: 9 ± 0.41; for “AATATAAATAATTATACACACTTAATATATATATAC [CACACA_site5533]”: 8.83 ± 0.44. Then “ATTTATGTTAATAAGTGTACAATAAATTTTTTTTAT [XGTACX_site7658]”, with 8.4 ± 0.46; and “AACATATATAAATACACACACATATATATATGAAAT [CACACA_site4312]”, with 9.51 ± 0.26. The same measure for “AAAATGTCCCGTAGAAAATAAATTTATTACGCAATA [CACACA_negctrl_site1564]”: 8.6 ± 0.4; for TATTAATTTAAATGGGTGCAAAACCTATATAAATAT: 8.61 ± 0.46; for “TTATTTTATTTTTGTGCACACTGATAAATTGAAAAG [CACACA_site2949]”: 8.82 ± 0.49. With “TAAAAGTTCACCTGTACACACATATAAATATGTACA [CACACA_site6901]”, the “gcPBM binding intensity (ln)” value was 8.95 ± 0.33. The same measure for “CGTTTTCTATATCATTGTACATATTCATGTGTAAAT [XGTACX_site2741]”: 8.98 ± 0.36; for “AAAATTAACCGTAACACACACACATATAAATATGTA [CACACA_site7791]”: 9.57 ± 0.23; for “TTGTTTAAGTCACGAACACACATATATCATCAATTT [CACACA_site986]”: 8.9 ± 0.36. As for “ATTAATAAATTCAATTGTACTTGTTTATACATAAAA [XGTACX_site3733]”, the “gcPBM binding intensity (ln)” value stood at 8.31 ± 0.42. The same measure for “ACAAAATTATGTAGATGTACAGACATAGAAAGAGAT [XGTACX_site3096]”: 9.17 ± 0.45.

In the case of “ATTTATGAAAAATGTACACACATCAAATGCTTATAT [CACACA_site4068]”, the “gcPBM binding intensity (ln)” value is 8.97 ± 0.41. Then “GTTTGAATGGCGCACTGTACACATATATACATATAG [XGTACX_site8619]”, with 9.13 ± 0.26; and “ATTTATTTTGTTGTTGTTTTTATTTGATTGTTTTAT [CACACA_negctrl_site1275]”, with 9.04 ± 0.47; and “TTATGGTGCAACATTATGCACACCGTTAAATAACTA [CACACA_site3846]”, with 8.76 ± 0.4. The same measure for “AATATAAATAAACACACACACATATATATATATATT [CACACA_site2906]”: 9.79 ± 0.21.
